Experimental data taken from patent US20260224723A1, “ANTI-B7H3 ANTIBODY-DRUG CONJUGATE AND USE THEREOF” (Duality Biologics (Suzhou) Co., Ltd., priority 2022, published 2026).

Key:
cynomolgus monkey B7H3 = test: SPR binding affinity for cynomolgus monkey B7H3 (Biacore 8K); details: analyte cynomolgus monkey B7H3
Protocol: The affinity of antibodies for cynomolgus monkey B7H3 was determined using surface plasmon resonance (SPR). The affinity of antibodies for cynomolgus monkey B7H3 was determined by Biacore 8K. An activator was prepared by mixing 400 mM EDC and 100 mM NHS (GE) immediately prior to injection into the channel. The CM5 sensor chip was activated for 420 seconds with the activator. Goat anti-human Fe IgG (30 μg/mL in 10 mM NaAc, pH 4.5) was then injected into the channel at a flow rate of 10 μL/min for 420 seconds. The chip was deactivated by 1 M ethanolamine hydrochloric acid. The antibodies diluted in running buffer (1×HBS-EP+) were injected into the channel at a flow rate of 10 μL/min for 30 seconds. […] Glycine (10 mM, pH 1.5) was injected as regeneration buffer after the dissociation phase.
The sensorgrams for the reference channel and the buffer channel were subtracted from the test sensorgrams. The experimental data for 6 analyte concentrations (50 nM, 25 nM, 12.5 nM, 6.25 nM, 3.125 nM, and 1.563 nM) were fitted with a 1:1 binding model. The molecular weight of the cynomolgus monkey B7H3 used in the calculation was 49 kDa.
(§1) The experimental data were fitted by a 1:1 binding model bundled with the Biacore 8K evaluation software.

human 2IgB7H3 = molecular target: T1, human 2IgB7H3 (Homo sapiens, UniProt Q5ZPR3); test: SPR binding affinity for human 2IgB7H3 (Biacore 8K); details: analyte human 2IgB7H3
T1 construct: His tag; purchased ACRO (ACROBiosystems) B73-H52E2
T1 sequence (Q5ZPR3 29-316 isoform Q5ZPR3-2 limits assumed): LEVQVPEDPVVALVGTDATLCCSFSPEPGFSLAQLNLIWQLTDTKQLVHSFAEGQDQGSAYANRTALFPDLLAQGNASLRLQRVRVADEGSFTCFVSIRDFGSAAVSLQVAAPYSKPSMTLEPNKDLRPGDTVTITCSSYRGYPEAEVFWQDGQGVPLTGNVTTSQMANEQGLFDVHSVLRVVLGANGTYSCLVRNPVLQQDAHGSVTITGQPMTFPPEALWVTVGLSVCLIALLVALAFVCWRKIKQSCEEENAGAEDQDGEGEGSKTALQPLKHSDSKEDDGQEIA
Protocol: The affinity of antibodies for human 2IgB7H3 was determined using surface plasmon resonance (SPR). The affinity of antibodies for human 2IgB7H3 was determined by Biacore 8K. An activator was prepared by mixing 400 mM EDC and 100 mM NHS (GE) immediately prior to injection into the channel. The CM5 sensor chip was activated for 420 seconds with the activator. Goat anti-human Fc IgG (30 μg/mL in 10 mM NaAc, pH 4.5) was then injected into the channel at a flow rate of 10 μL/min for 420 seconds. The chip was deactivated by 1 M ethanolamine hydrochloric acid. The antibodies diluted in running buffer (1×HBS-EP+) were injected into the channel at a flow rate of 10 μL/min for 30 seconds. Seven concentrations (500 nM, 250 nM, 125 nM, 62.5 nM, 31.25 nM, 15.625 nM, and 7.813 nM) of analyte human 2IgB7H3 were injected sequentially into the channel at a flow rate of 30 μL/min for an association phase of 120 seconds, followed by dissociation of 300 seconds. Glycine (10 mM, pH 1.5) was injected as regeneration buffer after the dissociation phase.
The sensorgrams for the reference channel and the buffer channel were subtracted from the test sensorgrams. The experimental data were fitted with a 1:1 binding model. The molecular weight of the human 2IgB7H3 used in the calculation was 25.2 kDa.
as §1

human 4IgB7H3 = molecular target: T2, human 4IgB7H3 (Homo sapiens, UniProt Q5ZPR3); test: SPR binding affinity for human 4IgB7H3 (Biacore 8K); details: analyte human 4IgB7H3
T2 construct: Uniprot ID: Q5ZPR3, amino acids 29-461; 6xHis (C); made in house; host or cells: Expi293F
T2 sequence (Q5ZPR3 29-461): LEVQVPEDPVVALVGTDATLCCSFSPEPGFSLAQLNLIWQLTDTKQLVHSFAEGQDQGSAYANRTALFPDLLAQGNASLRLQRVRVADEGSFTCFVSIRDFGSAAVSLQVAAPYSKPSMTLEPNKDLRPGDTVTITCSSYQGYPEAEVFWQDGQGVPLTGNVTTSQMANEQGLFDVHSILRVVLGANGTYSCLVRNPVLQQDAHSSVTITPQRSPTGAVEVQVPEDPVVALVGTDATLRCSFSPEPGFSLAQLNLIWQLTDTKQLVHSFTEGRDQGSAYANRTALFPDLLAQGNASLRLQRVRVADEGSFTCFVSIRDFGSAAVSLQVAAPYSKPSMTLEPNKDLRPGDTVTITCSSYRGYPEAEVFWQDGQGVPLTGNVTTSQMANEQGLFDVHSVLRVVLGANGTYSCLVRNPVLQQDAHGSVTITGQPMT
Protocol: The affinity of antibodies for human 4IgB7H3 was determined using surface plasmon resonance (SPR). The affinity of antibodies for human 4IgB7H3 was determined by Biacore 8K. An activator was prepared by mixing 400 mM EDC and 100 mM NHS (GE) immediately prior to injection into the channel. The CM5 sensor chip was activated for 420 seconds with the activator. Goat anti-human Fc IgG (30 μg/mL in 10 mM NaAc, pH 4.5) was then injected into the channel at a flow rate of 10 μL/min for 420 seconds. The chip was deactivated by 1 M ethanolamine hydrochloric acid. The antibodies diluted in running buffer (1×HBS-EP+) were injected into the channel at a flow rate of 10 μL/min for 30 seconds. Seven concentrations (100 nM, 50 nM, 25 nM, 12.5 nM, 6.25 nM, […], and 1.563 nM) of analyte human 4IgB7H3 were injected sequentially into the channel at a flow rate of 30 μL/min for an association phase of 180 seconds, followed by dissociation of 3600 seconds. Glycine (10 mM, pH 1.5) was injected as regeneration buffer after the dissociation phase.
The sensorgrams for the reference channel and the buffer channel were subtracted from the test sensorgrams. The experimental data were fitted with a 1:1 binding model. The molecular weight of the human 4IgB7H3 used in the calculation was 47.8 kDa.
as §1

ka (cynomolgus monkey B7H3): 521000 M⁻¹ s⁻¹ | kd (cynomolgus monkey B7H3): 2.94e-05 s⁻¹ | ka (human 2IgB7H3): 235000 M⁻¹ s⁻¹ | kd (human 2IgB7H3): 0.0136 s⁻¹ | ka (human 4IgB7H3): 657000 M⁻¹ s⁻¹ | kd (human 4IgB7H3): 3.39e-05 s⁻¹
B1: W301088-1.145.16-xIgG1KV320: chimeric anti-B7H3 human IgG1 LALA antibody, heavy chain SEQ ID NO: 14, light chain SEQ ID NO: 15 (antibody)
heavy: DVQLQESGPGLVKPSQSLSLTCTVTDYSITGDYAWNWIRQFPGNKLEWMGYISYSGSTSYNPSLQSRISITRDTSKNQFFLQLNSVTSEDTATYFCARSLGRRWYFVVWGAGTTVTVSAASTKGPSVFPLAPSSKSTSGGTAALGCLVKDYFPEPVTVSWNSGALTSGVHTFPAVLQSSGLYSLSSVVTVPSSSLGTQTYICNVNHKPSNTKVDKRV[not shown - human IgG1 Fc with changes]
light: DIVMTQSPSSLAMSVGQKVTMSCKSSQSLLNSSNQKNYLAWYQQKPGQSPKLLIYFASTRESGVPDRFIGSGSGTDFTLTISSVQAEDLTDYFCQQHYSAPWTFGGGTKLEIKRTVAAPSVFIFPPSDEQLKSGTASVVCLLNNFYPREAKVQWKVDNALQSGNSQESVTEQDSKDSTYSLSSTLTLSKADYEKHKVYACEVTHQGLSSPVTKSFNRGEC
